Test results as given in the supplement of paper PMC4967469.

Legend:
Assay in all cases: Viability of human cancer cell lines after 72 h of drug (GDSC screen)
[1] = compound: CO[C@@]12[C@H](COC(N)=O)C3=C(C(=O)C(C)=C(N)C3=O)N1C[C@@H]1N[C@@H]12 [Mitomycin C]; conditions: top dose 16 µM
Description: (§1)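 Human cancer cell lines in 384-well plates, medium with 10% serum, drug for 72 h over a 256-fold dose range (nine 2-fold or five 4-fold steps up to the top dose). Adherent lines were fixed and stained with the nucleic acid dye Syto60, suspension lines read with resazurin; signal relative to control wells, capped at 0 and 100%. One two-parameter sigmoid per drug and line, fitted in a mixed model over all curves with the slope shared within a line.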

[2] = compound: CO[C@@H]1[C@H](N(C)C(=O)c2ccccc2)C[C@H]2O[C@]1(C)n1c3ccccc3c3c4c(c5c6ccccc6n2c5c31)C(=O)NC4 [Midostaurin]; conditions: top dose 0.512 µM; top dose inferred
Description: as §1

[3] = compound: O=C(O)CNC(=O)c1c(O)c2ccccc2n(Cc2ccccc2)c1=O [IOX2]; conditions: top dose 0.1 µM; top dose inferred
Description: as §1

[4] = compound: Cc1ccc(C(=O)Nc2cccc(C(F)(F)F)c2)cc1Nc1nc(-c2cccnc2)nc2c1cnn2C [NVP-BHG712]; conditions: top dose 10.24 µM; top dose inferred
Description: as §1

[5] = compound: COc1cc(Nc2c(C#N)cnc3cc(OCCCN4CCN(C)CC4)c(OC)cc23)c(Cl)cc1Cl [Bosutinib]; conditions: top dose 2 µM
Description: as §1

| Cell Line | AUC [1] | IC50 [1] | AUC [2] | IC50 [2] | AUC [3] | IC50 [3] | AUC [4] | IC50 [4] | AUC [5] | IC50 [5] |
| --- | --- | --- | --- | --- | --- | --- | --- | --- | --- | --- |
| 769-P (kidney, adherent) | 0.06 | < 62.5 nM | 0.725 | 149 nM | 0.971 | > 100 nM | 0.906 | > 10200 nM | – | – |
| A172 (glioma, adherent) | 0.386 | 492 nM | 0.828 | 300 nM | 0.969 | > 100 nM | 0.947 | > 10200 nM | – | – |
| A204 (rhabdomyosarcoma, adherent) | 0.21 | 105 nM | 0.661 | 102 nM | 0.967 | > 100 nM | 0.604 | 1350 nM | – | – |
| A673 (rhabdomyosarcoma, adherent) | 0.456 | 769 nM | 0.931 | > 512 nM | 0.988 | > 100 nM | 0.988 | > 10200 nM | – | – |
| BCPAP (thyroid, adherent) | 0.299 | 289 nM | 0.822 | 263 nM | 0.988 | > 100 nM | 0.838 | 6010 nM | – | – |
| BEN (non-small cell lung carcinoma, adherent) | 0.482 | 887 nM | 0.927 | > 512 nM | 0.985 | > 100 nM | 0.949 | > 10200 nM | – | – |
| BFTC-909 (kidney, adherent) | 0.182 | 114 nM | 0.836 | 328 nM | 0.985 | > 100 nM | 0.984 | > 10200 nM | – | – |
| BHY (head and neck, adherent) | 0.129 | 65.9 nM | 0.883 | > 512 nM | 0.956 | > 100 nM | 0.887 | > 10200 nM | – | – |
| BICR31 (head and neck, adherent) | 0.401 | 534 nM | 0.859 | 432 nM | – | – | 0.985 | > 10200 nM | – | – |
| BxPC-3 (pancreas, adherent) | 0.442 | 682 nM | – | – | 0.982 | > 100 nM | 0.832 | 7680 nM | 0.975 | > 2000 nM |
| CAPAN-1 (pancreas, adherent) | 0.2 | 114 nM | – | – | 0.969 | > 100 nM | 0.914 | > 10200 nM | 0.877 | > 2000 nM |
| CCRF-CEM (lymphoblastic leukaemia, suspension) | 0.1 | 68.3 nM | – | – | 0.99 | > 100 nM | 0.714 | 2290 nM | 0.82 | 918 nM |
| Caov-3 (ovary, adherent) | 0.236 | 193 nM | 0.943 | > 512 nM | – | – | 0.957 | > 10200 nM | – | – |
| DAN-G (pancreas, adherent) | 0.673 | 2840 nM | – | – | 0.991 | > 100 nM | 0.971 | > 10200 nM | 0.988 | > 2000 nM |
| EKVX (lung adenocarcinoma, adherent) | 0.52 | 1200 nM | – | – | 0.965 | > 100 nM | 0.959 | > 10200 nM | 0.894 | > 2000 nM |
| GAK (melanoma, adherent) | 0.425 | 630 nM | – | – | 0.977 | > 100 nM | – | – | – | – |
| H3255 (lung adenocarcinoma, adherent) | 0.387 | 459 nM | – | – | 0.982 | > 100 nM | 0.966 | > 10200 nM | 0.695 | 496 nM |
| HCC202 (breast, adherent) | 0.626 | 2560 nM | – | – | 0.977 | > 100 nM | 0.939 | > 10200 nM | 0.981 | > 2000 nM |
| HCC2998 (large intestine, adherent) | 0.243 | 186 nM | – | – | 0.984 | > 100 nM | 0.908 | > 10200 nM | 0.987 | > 2000 nM |
| HEL (acute myeloid leukaemia, semi-adherent) | 0.182 | 140 nM | – | – | 0.989 | > 100 nM | 0.91 | > 10200 nM | – | – |
| HOP-92 (large cell lung carcinoma, adherent) | 0.611 | 2130 nM | – | – | 0.981 | > 100 nM | 0.985 | > 10200 nM | 0.878 | > 2000 nM |
| HuH-7 (liver, adherent) | 0.609 | – | – | – | 0.984 | > 100 nM | 0.959 | > 10200 nM | 0.977 | > 2000 nM |
| K-562 (chronic myeloid leukaemia, suspension) | 0.61 | – | – | – | – | – | 0.204 | 88.5 nM | – | – |
| KM12 (large intestine, adherent) | 0.547 | 1360 nM | – | – | 0.974 | > 100 nM | 0.872 | > 10200 nM | 0.968 | > 2000 nM |
| MDA-MB-468 (breast, adherent) | 0.331 | – | – | – | 0.987 | > 100 nM | 0.978 | > 10200 nM | 0.943 | > 2000 nM |

| Cell Line | AUC [1] | IC50 [1] | AUC [2] | IC50 [2] | AUC [3] | IC50 [3] | AUC [4] | IC50 [4] | AUC [5] | IC50 [5] |
| --- | --- | --- | --- | --- | --- | --- | --- | --- | --- | --- |
| MOLM-13 (acute myeloid leukaemia, suspension) | 0.277 | 244 nM | – | – | 0.984 | > 100 nM | 0.637 | 1490 nM | 0.886 | 1970 nM |
| MV-4-11 (leukaemia, suspension) | 0.026 | < 62.5 nM | – | – | 0.979 | > 100 nM | 0.949 | > 10200 nM | – | – |
| NCI-H226 (lung squamous cell carcinoma, adherent) | 0.448 | – | – | – | 0.94 | > 100 nM | 0.841 | 7670 nM | 0.987 | > 2000 nM |
| NCI-H520 (lung squamous cell carcinoma, adherent) | – | – | 0.967 | > 512 nM | 0.985 | > 100 nM | 0.711 | 2570 nM | 0.987 | > 2000 nM |
| NCI-H522 (lung adenocarcinoma, adherent) | 0.276 | 203 nM | – | – | 0.982 | > 100 nM | 0.96 | > 10200 nM | – | – |
| NCI-H596 (lung adenocarcinoma, adherent) | – | – | 0.982 | > 512 nM | 0.974 | > 100 nM | 0.915 | > 10200 nM | 0.982 | > 2000 nM |
| NCI-H630 (large intestine, adherent) | – | – | 0.904 | > 512 nM | 0.976 | > 100 nM | 0.974 | > 10200 nM | 0.969 | > 2000 nM |
| NCI-H661 (large cell lung carcinoma, adherent) | – | – | 0.926 | > 512 nM | 0.98 | > 100 nM | 0.914 | > 10200 nM | 0.85 | > 2000 nM |
| NCI-H2030 (lung adenocarcinoma, adherent) | 0.298 | 247 nM | – | – | 0.981 | > 100 nM | 0.871 | > 10200 nM | – | – |
| NCI-H2228 (lung adenocarcinoma, adherent) | 0.085 | < 62.5 nM | – | – | 0.973 | > 100 nM | 0.955 | > 10200 nM | – | – |
| OVCAR-3 (ovary, adherent) | 0.501 | 1000 nM | – | – | 0.985 | > 100 nM | 0.986 | > 10200 nM | – | – |
| OVCAR-4 (ovary, adherent) | 0.468 | 786 nM | – | – | 0.962 | > 100 nM | 0.878 | > 10200 nM | 0.849 | > 2000 nM |
| OVCAR-5 (ovary, adherent) | 0.397 | – | – | – | 0.977 | > 100 nM | 0.942 | > 10200 nM | 0.938 | > 2000 nM |
| P12-ICHIKAWA (T-cell lymphoblastic leukaemia, suspension) | – | – | 0.9 | 390 nM | 0.994 | > 100 nM | 0.908 | 8420 nM | 0.994 | > 2000 nM |
| PCI-6A (head and neck, adherent) | – | – | 0.875 | 486 nM | 0.986 | > 100 nM | 0.915 | > 10200 nM | 0.65 | 322 nM |
| RPMI-8226 (myeloma, suspension) | 0.535 | 1230 nM | – | – | 0.986 | > 100 nM | 0.972 | > 10200 nM | 0.879 | 1590 nM |
| SK-MEL-2 (melanoma, adherent) | 0.702 | 3810 nM | – | – | 0.986 | > 100 nM | 0.987 | > 10200 nM | 0.802 | 1030 nM |
| SK-MEL-28 (melanoma, adherent) | 0.812 | 8370 nM | – | – | 0.843 | 68.9 nM | 0.742 | 3100 nM | – | – |
| SK-UT-1 (soft tissue, adherent) | – | – | 0.84 | 309 nM | 0.986 | > 100 nM | 0.95 | > 10200 nM | 0.88 | 1750 nM |
| SNU-182 (liver, adherent) | – | – | 0.885 | > 512 nM | 0.985 | > 100 nM | 0.933 | > 10200 nM | 0.902 | > 2000 nM |
| SNU-475 (liver, adherent) | 0.478 | 877 nM | 0.982 | > 512 nM | – | – | 0.947 | > 10200 nM | – | – |
| SW1710 (bladder, adherent) | – | – | 0.717 | 135 nM | 0.982 | > 100 nM | 0.836 | 7100 nM | 0.916 | > 2000 nM |
| TMK-1 (stomach, adherent) | – | – | 0.942 | > 512 nM | 0.961 | > 100 nM | 0.986 | > 10200 nM | 0.919 | > 2000 nM |
| U-2-OS (osteosarcoma, adherent) | – | – | 0.907 | > 512 nM | 0.98 | > 100 nM | 0.985 | > 10200 nM | 0.934 | > 2000 nM |
| UM-UC-3 (bladder, adherent) | – | – | 0.897 | > 512 nM | 0.985 | > 100 nM | 0.817 | 5280 nM | 0.87 | 1670 nM |

A lower IC50 marks a more sensitive line; where the fit passes the top or lowest dose, that dose stands as a limit. AUC is the area under the same curve over the 256-fold range up to the top dose, as a fraction; values near 1 show little effect. For some of these results: A top dose marked as inferred was calculated from the reported fits.
